About 2,200 (0.71%) of roughly 310,000 compounds showed an effect of 50% or more. Effects have a minus sign here. The list shows a part of the results.
Target: human ether-à-go-go-related gene (hERG) potassium channel (human, UniProt Q12809)
Assay: primary screen, population patch clamp on CHO cells stably expressing hERG

Chain of human ether-à-go-go-related gene (hERG) potassium channel (Q12809 whole entry, looked up): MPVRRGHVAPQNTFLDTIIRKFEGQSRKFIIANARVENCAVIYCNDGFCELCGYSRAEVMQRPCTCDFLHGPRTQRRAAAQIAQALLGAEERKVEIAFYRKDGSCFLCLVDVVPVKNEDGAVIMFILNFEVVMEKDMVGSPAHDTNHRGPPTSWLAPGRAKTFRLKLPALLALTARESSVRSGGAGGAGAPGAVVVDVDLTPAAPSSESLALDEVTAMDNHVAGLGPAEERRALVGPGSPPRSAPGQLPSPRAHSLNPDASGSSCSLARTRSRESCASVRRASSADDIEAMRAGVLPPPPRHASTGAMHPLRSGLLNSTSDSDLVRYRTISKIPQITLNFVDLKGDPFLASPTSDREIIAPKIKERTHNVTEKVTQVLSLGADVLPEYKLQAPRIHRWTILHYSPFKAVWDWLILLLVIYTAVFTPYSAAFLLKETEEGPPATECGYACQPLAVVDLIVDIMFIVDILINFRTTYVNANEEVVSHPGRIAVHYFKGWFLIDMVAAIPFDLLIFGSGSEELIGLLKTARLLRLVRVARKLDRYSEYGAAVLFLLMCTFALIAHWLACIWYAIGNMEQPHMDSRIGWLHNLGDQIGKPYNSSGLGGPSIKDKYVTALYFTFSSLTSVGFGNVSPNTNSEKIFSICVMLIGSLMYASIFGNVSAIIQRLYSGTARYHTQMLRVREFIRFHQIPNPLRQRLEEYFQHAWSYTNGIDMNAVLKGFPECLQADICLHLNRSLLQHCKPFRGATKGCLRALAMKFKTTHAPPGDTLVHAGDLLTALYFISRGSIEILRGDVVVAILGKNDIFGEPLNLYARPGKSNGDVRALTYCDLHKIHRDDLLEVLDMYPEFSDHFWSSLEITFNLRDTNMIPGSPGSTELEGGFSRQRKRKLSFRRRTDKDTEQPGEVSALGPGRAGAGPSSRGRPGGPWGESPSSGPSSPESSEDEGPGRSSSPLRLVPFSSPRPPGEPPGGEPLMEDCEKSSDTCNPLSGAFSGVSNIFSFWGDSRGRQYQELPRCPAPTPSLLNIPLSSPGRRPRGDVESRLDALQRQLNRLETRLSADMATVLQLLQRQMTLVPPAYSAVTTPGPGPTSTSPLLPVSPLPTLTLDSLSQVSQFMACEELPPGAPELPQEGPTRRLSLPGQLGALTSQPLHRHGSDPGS

Q: How did the “hERG current change (%, negative = inhibition) at 1uM” value turn out when COc1ccc(NC(=O)C2CC(=O)n3c(nc4ccccc43)N2)cc1 (centres unmarked) was run?
A: 4.53%

Q: Which “hERG current change (%, negative = inhibition) at 1uM” value does the source give for CCN(c1ccccc1)c1cc2ccccc2c(=O)[nH]1 here?
A: 4.53%

Q: For COc1cccc(-c2noc(-c3ccc(Br)o3)n2)c1, which “hERG current change (%, negative = inhibition) at 1uM” value is on record?
A: 13.4%

Q: How did the “hERG current change (%, negative = inhibition) at 1uM” value turn out when CN1CCN(C(=O)CSc2nc(-c3ccco3)cc(C(F)(F)F)n2)CC1 was run?
A: 11.4%

Q: Cc1ccccc1OCC(=O)Nn1c(COc2ccccc2)nc2ccccc2c1=O was tested. Which “hERG current change (%, negative = inhibition) at 1uM” value did it give?
A: 4.4%

Q: How did the “hERG current change (%, negative = inhibition) at 1uM” value turn out when COc1cc(OC)c(NC(=O)C2CCN(S(=O)(=O)c3ccc4c(c3)CC(C)N4C(C)=O)CC2)cc1Cl (centres unmarked) was run?
A: 9.53%

Q: With Cc1ccc(C(=O)N/C(=C\c2ccco2)C(=O)NC2CCS(=O)(=O)C2)cc1 (centres unmarked) as the molecule, how does the “hERG current change (%, negative = inhibition) at 1uM” value read?
A: 9.68%

Q: C/C(=N\NC(=O)c1c(Cl)c(C)nn1C)c1ccc(NC(=O)c2ccncc2)cc1 was tested. Which “hERG current change (%, negative = inhibition) at 1uM” value did it give?
A: 0.881%

Q: CCn1c(CNC(=O)c2cc(OC)c(OC)c(OC)c2)cc2ccccc21 was tested. Which “hERG current change (%, negative = inhibition) at 1uM” value did it give?
A: 6.88%

Q: Which “hERG current change (%, negative = inhibition) at 1uM” value does the source give for Cc1ccc(OCC(=O)NN=C2c3ccccc3-c3ccccc32)cc1 here?
A: -12.6%

Q: O=C(NCC1CCCO1)Nc1cccc(Cl)c1 (centres unmarked) was tested. Which “hERG current change (%, negative = inhibition) at 1uM” value did it give?
A: 1.27%

Q: Which “hERG current change (%, negative = inhibition) at 1uM” value does the source give for CCOC(=O)COc1ccc(S(=O)(=O)Nc2ccc(C)cc2)cc1 here?
A: -15.9%

Q: With Cc1ccc(C(=O)Nc2c(C#N)c(C)c(C)n2Cc2ccccc2)cc1 as the molecule, how does the “hERG current change (%, negative = inhibition) at 1uM” value read?
A: 10.2%

Q: For CCOC(=O)C(CC)Sc1cc(C)nc2ccc(OC)cc12 (centres unmarked), which “hERG current change (%, negative = inhibition) at 1uM” value is on record?
A: 6.6%

Q: Which “hERG current change (%, negative = inhibition) at 1uM” value does the source give for Cc1cc(C)n2nc(C(=O)Nc3ccc(N4CCOCC4)cc3)nc2n1 here?
A: 6.01%

Q: With CCN(CC(=O)Nc1ccccc1C(=O)Nc1ccccc1)Cc1nc2ccccc2c(=O)[nH]1 as the molecule, how does the “hERG current change (%, negative = inhibition) at 1uM” value read?
A: -49%

Q: How did the “hERG current change (%, negative = inhibition) at 1uM” value turn out when OCCN(Cc1ccccc1)C(=S)Nc1ccc(Cl)cc1Cl was run?
A: 19%

Q: For CN(C)c1cccc(C(=O)NCC(c2ccco2)N(C)C)c1 (centres unmarked), which “hERG current change (%, negative = inhibition) at 1uM” value is on record?
A: 6.2%

Q: How did the “hERG current change (%, negative = inhibition) at 1uM” value turn out when COc1ccc(NC(=O)c2cc3sccc3n2Cc2ccc(F)cc2)cc1OC was run?
A: 1.61%

Q: Cc1csc(N/N=C\c2cccnc2)n1 was tested. Which “hERG current change (%, negative = inhibition) at 1uM” value did it give?
A: 2.56%

Q: How did the “hERG current change (%, negative = inhibition) at 1uM” value turn out when Cc1ccc(NC2CCCN(C(=O)c3ccc(F)cc3)C2)cc1C (centres unmarked) was run?
A: 11.1%

Q: How did the “hERG current change (%, negative = inhibition) at 1uM” value turn out when CCOC(=O)C1=C(C)NC(=S)NC1c1cccs1 (centres unmarked) was run?
A: 15%

Q: How did the “hERG current change (%, negative = inhibition) at 1uM” value turn out when CN1CCc2ccc(NC(=O)c3ccc(C(F)(F)F)cc3)cc2C1 was run?
A: 2.88%

Q: For CCOC(=O)CC(NC(=O)c1cccc2c1C(=O)N(Cc1cccnc1)C2)c1ccc(OCC)c(OC)c1 (centres unmarked), which “hERG current change (%, negative = inhibition) at 1uM” value is on record?
A: -3.38%

Q: O=C(Cc1c[nH]c2ccccc12)N[C@@H](Cc1c[nH]c2ccccc12)C(=O)O was tested. Which “hERG current change (%, negative = inhibition) at 1uM” value did it give?
A: 8.97%

Q: COc1cccc(/C=N/NC(=O)c2ccncc2)c1OC(=O)c1ccc(Br)cc1 was tested. Which “hERG current change (%, negative = inhibition) at 1uM” value did it give?
A: 15.1%

Q: How did the “hERG current change (%, negative = inhibition) at 1uM” value turn out when O=C(NCc1ccccn1)c1ccc(CS(=O)(=O)Cc2ccc(Cl)cc2)o1 was run?
A: 10.8%

Q: Which “hERG current change (%, negative = inhibition) at 1uM” value does the source give for O=C(Nc1ccccc1N1CCOCC1)c1ccc(F)c(S(=O)(=O)N2CCOCC2)c1 here?
A: 5.19%

Q: Which “hERG current change (%, negative = inhibition) at 1uM” value does the source give for Cc1cccc(OC(=O)CN2C(=O)C3C4CCC(C4)C3C2=O)c1C (centres unmarked) here?
A: 9.47%

Q: How did the “hERG current change (%, negative = inhibition) at 1uM” value turn out when Cc1[nH]c2ccccc2c1C(=O)CSC(=S)N1CCCCC1 was run?
A: -1.04%

Q: How did the “hERG current change (%, negative = inhibition) at 1uM” value turn out when COc1ccc2c(c1)cc(C)c1nnc(SCC(=O)N(C)c3nc(-c4ccccc4)cs3)n12 was run?
A: 19%

Q: How did the “hERG current change (%, negative = inhibition) at 1uM” value turn out when S=C(NCc1ccco1)N1CCN(c2ccccc2Cl)CC1 was run?
A: 5.55%

Q: For COc1ccc(/C(C)=N/NC(=O)CCC(=O)Nc2ccc(Cl)cc2Cl)c(OC)c1, which “hERG current change (%, negative = inhibition) at 1uM” value is on record?
A: -0.337%

Q: Which “hERG current change (%, negative = inhibition) at 1uM” value does the source give for CCOc1ccc(S(=O)(=O)N2CCCCCC2)c2ccccc12 here?
A: -1.32%

Q: With CCc1ccc(C(=O)/C=C/Nc2ccc(S(=O)(=O)Nc3onc(C)c3C)cc2)cc1 as the molecule, how does the “hERG current change (%, negative = inhibition) at 1uM” value read?
A: 8.64%

Q: CCCCn1c(N)c(N(CCOC)C(=O)c2ccc(Cl)c(S(=O)(=O)N3CCCC3)c2)c(=O)[nH]c1=O was tested. Which “hERG current change (%, negative = inhibition) at 1uM” value did it give?
A: 11.4%

Q: Which “hERG current change (%, negative = inhibition) at 1uM” value does the source give for O=S(=O)(c1cccc2cccc(Cl)c12)N1CCCC1 here?
A: 6.88%

Q: For CC[n+]1c(/C=C/C=C/N(C(C)=O)c2ccccc2)sc2ccccc21.[I-], which “hERG current change (%, negative = inhibition) at 1uM” value is on record?
A: -52.2%

Q: With CCOc1ccc(NC(=O)NNC(=O)c2cc3ccccc3cc2O)cc1 as the molecule, how does the “hERG current change (%, negative = inhibition) at 1uM” value read?
A: 5.2%

Q: For COc1ccc(C(C)=O)cc1COC(=O)CSCC(=O)Nc1ccc(C)cc1, which “hERG current change (%, negative = inhibition) at 1uM” value is on record?
A: -4.02%

Q: For CCCn1c(SCC(=O)Nc2cccc(S(=O)(=O)NC3=NCCCCC3)c2)nc2ccccc2c1=O, which “hERG current change (%, negative = inhibition) at 1uM” value is on record?
A: -2.57%

Q: Which “hERG current change (%, negative = inhibition) at 1uM” value does the source give for CC(=O)c1ccc(OCCNS(=O)(=O)c2ccc(-n3cnnn3)cc2)cc1 here?
A: -10.4%

Q: With O=C(/C=C/c1ccc(F)cc1)NC(=S)NNC(=O)c1cccnc1 as the molecule, how does the “hERG current change (%, negative = inhibition) at 1uM” value read?
A: 10.6%

Q: For O=C(N/C(=C/c1cccc([N+](=O)[O-])c1)C(=O)N1CCCC1)c1ccccc1, which “hERG current change (%, negative = inhibition) at 1uM” value is on record?
A: -0.775%

— paper PMC4336329 (PLoS ONE, 2015)
